Experimental data published in PubChem BioAssay AID485344 (National Center for Advancing Translational Sciences (NCATS), 2010).
Out of some 340,000 compounds screened, about 6,900 (2%) were called active. No stated cut-off is given here; in the data, active means inhibition above about 30%; inactive means below that, where a call was filed. The entries are a selection whose mix differs from that of the whole data set. Entries without a call were filed so in the source.

Biological target: D(2) dopamine receptor (Homo sapiens) (UniProt P14416)
Assay: HTS Assay for Allosteric Antagonists of the Human D2 Dopamine Receptor: Primary Screen for Antagonists; further: 0% is about no effect
Conditions: HEK293 TREx D2 cells, calcium flux, dopamine EC80; at 10 µM; stronger effect = higher value
Summary of the method: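 Cells plated overnight at 30 C with tetracycline; no-wash calcium dye, 30–90 min RT; 10 s baseline; compound pinned; 180 s read; EC80 dopamine added; another 180 s read.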

Sequence of UniProt P14416 (P14416 whole entry, looked up): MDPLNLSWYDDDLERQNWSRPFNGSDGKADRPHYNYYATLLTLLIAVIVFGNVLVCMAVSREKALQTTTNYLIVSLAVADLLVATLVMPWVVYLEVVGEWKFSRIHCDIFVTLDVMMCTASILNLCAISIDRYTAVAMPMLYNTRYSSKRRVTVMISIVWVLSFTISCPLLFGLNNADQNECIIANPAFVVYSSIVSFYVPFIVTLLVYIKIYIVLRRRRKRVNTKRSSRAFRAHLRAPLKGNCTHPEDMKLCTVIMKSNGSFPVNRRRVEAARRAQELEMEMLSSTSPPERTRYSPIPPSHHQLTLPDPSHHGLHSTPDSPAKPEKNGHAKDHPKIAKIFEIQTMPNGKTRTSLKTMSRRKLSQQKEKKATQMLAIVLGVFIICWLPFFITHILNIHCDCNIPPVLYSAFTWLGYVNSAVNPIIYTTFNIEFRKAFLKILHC

Row | Compound | inhibition
1 | COc1ccc2c(c1)c1c(c(=O)n(-c3cccc(C)c3)c(=O)n1CC(=O)NCc1ccc(C)cc1)n2C | 9.89%
2 | CC(C)c1ccccc1NC(=O)Cn1cnc2c1c(=O)n(C)c(=O)n2C | 11.6%
3 | COc1ccc(CCNC(=O)CS(=O)(=O)Cc2nc(-c3cccc(Cl)c3)oc2C)cc1OC | -4.37%
4 | COc1ccc(-c2cc(C(=O)NCCc3ccccc3)c3c(-c4ccc(Cl)cc4)[nH]nc3n2)cc1 | 6.96%
5 | COc1ccc(CNC(=O)c2cccn2-c2nnc(N3CCCCC3)s2)c(OC)c1 | 18.8%
6 | Cc1cccc(N2C(=O)N(Cc3cccc(C#N)c3)c3ccccc3S2(=O)=O)c1 | 7.73%
7 | Cc1ccc(CSc2nc3ccncc3n2Cc2nc(-c3ccccc3C)oc2C)cc1 | -2.23%
8 | O=C(CCS(=O)(=O)c1cc(Br)cc2c1N(C(=O)C1CC1)CC2)N1CCN(c2cccc(C(F)(F)F)c2)CC1 | 12%
9 | O=C(Cn1c(=O)n(Cc2ccc(C(=O)NCc3ccc4c(c3)OCO4)cc2)c(=O)c2ccccc21)Nc1ccccc1F | 14.3%
10 | CCCNC(=O)c1c(NC(=O)c2ccccc2)sc2c1CCC(C(C)(C)C)C2 (stereo not given) | -6.55%
11 | CCOC(=O)c1c(-c2ccccc2)oc2ccc(OCc3cccc(Br)c3)cc12 | 10.2%
12 | O=C(Cn1cc(C(=O)c2cccs2)c2ccccc21)Nc1ccc(Br)cc1 | 4.97%
13 | CCN(c1cccc(C)c1)S(=O)(=O)c1c(C)nc2sc(C)cn2c1=O | -7.5%
14 | O=C1CCSC2(C(=O)N(Cc3ccc(F)cc3)c3ccccc32)N1c1cccc(F)c1 (stereo not given) | 5.75%
15 | COc1ccc(CNC(=O)CN(C)S(=O)(=O)c2ccc3c(c2)c(=O)n(C)c(=O)n3C)cc1 | -7.07%
16 | COc1ccc(C(=O)Oc2cc(-c3ccc(OC)c(OC)c3)cc(=O)c3c(C)oc(C)c23)cc1 | -8.77%
17 | CCSc1nc2ccccc2c(OCc2cc(C(=O)OC)ccc2OC)c1C(=O)OC | -5.86%
18 | COC(=O)c1c(C)sc(-c2c(-c3ccc(OC)c(F)c3)[nH]c3c2c(=O)n(C)c(=O)n3C)c1O | -11.6%
19 | CC(C)C(=O)Nc1nnc(S(=O)(=O)N2c3ccccc3CC2C)s1 (stereo not given) | -3.58%
20 | CCCOc1cccc(C(=O)Nc2cccc(NC(=O)c3ccc(Cl)cc3Cl)c2)c1 | 2.88%
21 | Cc1ccc(C(C)C)c(OCC(=O)Nc2ccc(O)c(-c3nc4cc(Cl)ccc4o3)c2)c1 | -15.3%
22 | COCC(=O)Nc1cc(C(=O)Nc2ccccc2C)ccc1Cl | active: 31.5%
23 | Cc1ccc(NC(=O)CN2C(=O)CC(c3ccc(C)c(C)c3)=Nc3ccccc32)cc1 | -7.79%
24 | COc1cc(CN(C)CCc2ccccc2)ccc1OCc1ccccc1 | active: 36.3%
25 | Cc1cccc(C)c1OC(=O)CSc1nnc(-c2ccc3c(c2)OCO3)o1 | 6.32%
